Measured values: a collection of fitness landscapes (doi:10.1038/s41467-024-54723-y)
Over roughly 18,000 sequences, “TetR repression strength (sort-seq, GFP reporter)” has its median near 0.23; the highest 2% begin near 0.68. Some of the results follow.

Each sequence was assayed against TetR (class B, Tn10) (UniProt P04483) (assay: TetR repression strength (sort-seq, GFP reporter) (relative to tetO2 = 1); higher = stronger repression). Details: E. coli.
How it was run: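 Repression strength is the top bin index plus one minus the read-weighted mean bin, relative to the unaltered operator's value. A low-copy library in E. coli SIG10-MAX randomized eight operator positions between a constitutive promoter and sfGFP, with TetR expressed constitutively; cells grew 5 h at 37 °C in LB with 50 µg/mL chloramphenicol and 10^6 were FACS-sorted into 13 bins that were each Illumina-sequenced. Three independent transformations were averaged, keeping only members with ≥30 reads in all replicates and CV ≤0.5.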

UniProt P04483, sequence (P04483 whole entry): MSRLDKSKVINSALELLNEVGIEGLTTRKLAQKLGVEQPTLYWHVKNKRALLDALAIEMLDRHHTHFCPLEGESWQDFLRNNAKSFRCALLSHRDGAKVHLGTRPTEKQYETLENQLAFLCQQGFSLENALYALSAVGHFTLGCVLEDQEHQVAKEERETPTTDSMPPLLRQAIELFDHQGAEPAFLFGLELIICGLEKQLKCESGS

Sequence	TetR repression strength
TCCCGTTCAGTGCCAGAGA	0.53
TCCCTTTTAGTCGAAGAGA	0.139
TCCCCTAAAGTGAGGGAGA	0.0606
TCCCCGTGAGTCAGGGAGA	0.152
TCCCCAGAAGTCAAGGAGA	0.355
TCCCAGCGAGTAGTCGAGA	0.256
TCCCGCCTAGTAGGCGAGA	0.391
TCCCGTGGAGTTATTGAGA	0.184
TCCCAGGGAGTCCATGAGA	0.104
TCCCGAAAAGTGGTCGAGA	0.182
TCCCTTTAAGTATCTGAGA	0.142
TCCCGGAAAGTAAGTGAGA	0.161
TCCCCCGGAGTAGTGGAGA	0.335
TCCCGTCTAGTTAGAGAGA	0.224
TCCCGGGGAGTTACTGAGA	0.305
TCCCGGCCAGTAAAAGAGA	0.194
TCCCAATAAGTTCGGGAGA	0.306
TCCCTTGTAGTCGCGGAGA	0.0226
TCCCGAGCAGTTGGTGAGA	0.317
TCCCGGGCAGTAGCAGAGA	0.401
TCCCTTGTAGTAGGCGAGA	0.205
TCCCGGGGAGTTGAGGAGA	0.171
TCCCTGGAAGTTAGGGAGA	0.399
TCCCGGCGAGTGGAAGAGA	0.379
TCCCAGTAAGTCAGAGAGA	0.066
TCCCAACGAGTGTTCGAGA	0.0549

Sequence	TetR repression strength
TCCCGGTCAGTGAAAGAGA	0.692
TCCCGGCAAGTGTTAGAGA	0.297
TCCCTGCTAGTTCCAGAGA	0.19
TCCCTGTAAGTGACGGAGA	0.796
TCCCTAGGAGTTTTAGAGA	0.292
TCCCGAGAAGTGGAGGAGA	0.216
TCCCTCGTAGTGTGGGAGA	0.159
TCCCCGAGAGTGAAGGAGA	0
TCCCCTGCAGTAATGGAGA	0.0455
TCCCTTGCAGTTTGTGAGA	0.541
TCCCTTGCAGTGACAGAGA	0.649
TCCCGGATAGTAATAGAGA	0.415
TCCCACTCAGTGCTAGAGA	0.611
TCCCCTCAAGTGGCTGAGA	0.287
TCCCTTCAAGTTCGCGAGA	0.308
TCCCATTGAGTGGGGGAGA	0.144
TCCCGCGTAGTTCGCGAGA	0.113
TCCCTACAAGTTTCGGAGA	0.416
TCCCACTCAGTCAGGGAGA	0.182
TCCCGGGCAGTCAAGGAGA	0.315
TCCCACCTAGTGTTAGAGA	0.579
TCCCGTGAAGTGTGCGAGA	0.0194
TCCCACGAAGTAGGCGAGA	0.0447
TCCCAGTCAGTCTTTGAGA	0.726
TCCCACTAAGTATCCGAGA	0.18
TCCCTTACAGTAGCTGAGA	0.3

Sequence	TetR repression strength
TCCCGATCAGTTCTAGAGA	0.344
TCCCTTGGAGTCCGTGAGA	0.171
TCCCTGTGAGTCTGAGAGA	0.351
TCCCAGAGAGTGGGGGAGA	0.192
TCCCCGTGAGTGGAAGAGA	0.227
TCCCCGCTAGTTAGAGAGA	0.2
TCCCTGGTAGTTGGAGAGA	0.24
TCCCGCTGAGTATCAGAGA	0.288
TCCCTCGAAGTGTCAGAGA	0.0462
TCCCAGAAAGTGATGGAGA	0.257
TCCCGTTGAGTTGGCGAGA	0.122
TCCCTATCAGTAGTGGAGA	0.434
TCCCACTGAGTTCCAGAGA	0.207
TCCCGTGTAGTGAGGGAGA	0.487
TCCCCTATAGTTTCGGAGA	0.238
TCCCACCTAGTACTGGAGA	0.302
TCCCAATAAGTTAACGAGA	0.0378
TCCCCCCGAGTTGGGGAGA	0.0812
TCCCCATAAGTAGTGGAGA	0.182
TCCCCTATAGTCTGAGAGA	0.0168
TCCCAATCAGTCATCGAGA	0.557
TCCCCGGTAGTGGGGGAGA	0.394
TCCCGACCAGTATGCGAGA	0.0346
TCCCCGGGAGTGGTTGAGA	0.19
TCCCGGGGAGTTCTGGAGA	0.218
TCCCGTTAAGTTAATGAGA	0.16

Sequence	TetR repression strength
TCCCTTGTAGTCAGCGAGA	0.245
TCCCGCCGAGTCATTGAGA	0.313
TCCCATTTAGTATACGAGA	0.33
TCCCTTCTAGTACATGAGA	0.44
TCCCCCGGAGTACGGGAGA	0.258
TCCCATAGAGTGGAAGAGA	0.331
TCCCGGAGAGTAGCGGAGA	0.287
TCCCGCTCAGTAAATGAGA	0.536
TCCCAAGCAGTTTGTGAGA	0.104
TCCCATGTAGTGTTCGAGA	0.0678
TCCCACCCAGTAGGGGAGA	0.0279
TCCCCTTAAGTGAATGAGA	0.408
TCCCGAGGAGTGCGTGAGA	0.182
TCCCATCCAGTAGTGGAGA	0.0483
TCCCTGCTAGTGGCAGAGA	0.119
TCCCGGCCAGTGGACGAGA	0.131
TCCCGGGGAGTGGCCGAGA	0.236
TCCCCGCAAGTAGGGGAGA	0.117
TCCCGAGGAGTGTACGAGA	0.172
TCCCGTGAAGTCAACGAGA	0.343
TCCCTTCAAGTCTTGGAGA	0.186
TCCCGAACAGTGAAAGAGA	0.488
TCCCAAATAGTGTCAGAGA	0.465
TCCCGAAGAGTTCTCGAGA	0.15
TCCCTACGAGTGCGCGAGA	0.408
TCCCCTTAAGTATTTGAGA	0.333

Sequence	TetR repression strength
TCCCGCCGAGTTATCGAGA	0.306
TCCCAGGCAGTGCAGGAGA	0.143
TCCCACCCAGTGGGGGAGA	0.089
TCCCGATTAGTGAATGAGA	0.396
TCCCTACGAGTCTGTGAGA	0.326
TCCCACCAAGTAAGTGAGA	0.148
TCCCTTTAAGTTATCGAGA	0.604
TCCCCTAAAGTTCAAGAGA	0.462
TCCCTGTAAGTTAGCGAGA	0.293
TCCCCATCAGTACGCGAGA	0.113
TCCCTTCTAGTCCTCGAGA	0.421
TCCCGGGAAGTGTATGAGA	0.188
TCCCATACAGTTATTGAGA	0.256
TCCCCTGCAGTCGGTGAGA	0.283
TCCCGACTAGTTCGCGAGA	0.367
TCCCGATGAGTAAGGGAGA	0.263
TCCCAGGAAGTTTCCGAGA	0.136
TCCCTTCGAGTATACGAGA	0.443
TCCCAAGGAGTGTCTGAGA	0.207
TCCCGCCCAGTCCGTGAGA	0.622
TCCCCTATAGTATTGGAGA	0.0207
TCCCAGTTAGTGGTAGAGA	0.382
TCCCAGCCAGTTATGGAGA	0.169
TCCCGCATAGTGGACGAGA	0.1
TCCCGGGAAGTGGCTGAGA	0.27
TCCCCTCTAGTAAGCGAGA	0.41

Sequence	TetR repression strength
TCCCTGTCAGTGCCAGAGA	0.324
TCCCGATAAGTATGAGAGA	0.226
TCCCGGGGAGTGGCGGAGA	0.226
TCCCAATGAGTAATGGAGA	0.232
TCCCTGTGAGTGGACGAGA	0.227
TCCCCGTGAGTTCCTGAGA	0.627
TCCCTAGGAGTGGTGGAGA	0.322
TCCCAAACAGTTGAAGAGA	0.482
TCCCTGCTAGTAGCCGAGA	0.155
TCCCCTCTAGTTCATGAGA	0.355
TCCCTGCAAGTGTAGGAGA	0.104
TCCCGGAGAGTCTAGGAGA	0.327
TCCCCCCTAGTATAGGAGA	0.204
TCCCTGGTAGTGTAGGAGA	0.142
TCCCCATGAGTGGAAGAGA	0.329
TCCCGCACAGTTCTAGAGA	0.426
TCCCCGCTAGTACGGGAGA	0.197
TCCCAGGTAGTTCGAGAGA	0.101
TCCCGGGGAGTTGGGGAGA	0.257
TCCCATGCAGTGATTGAGA	0.27
TCCCGTCTAGTAACAGAGA	0.0213
TCCCGCTTAGTATAAGAGA	0.531
TCCCAGATAGTGCAAGAGA	0.108
TCCCCAATAGTACGTGAGA	0.204
TCCCTATCAGTCATTGAGA	0.708
TCCCGGACAGTCGTCGAGA	0.892

Sequence	TetR repression strength
TCCCAGGGAGTCGAAGAGA	0.18
TCCCATACAGTTGTAGAGA	0.337
TCCCTCGTAGTGTCAGAGA	0.622
TCCCATTTAGTTTTGGAGA	0.175
TCCCCCGCAGTTGGAGAGA	0
TCCCACCAAGTTGCGGAGA	0
TCCCTAGCAGTGAACGAGA	0.543
TCCCTTCGAGTGGCCGAGA	0.368
TCCCTGCAAGTGTTAGAGA	0.272
TCCCTCGTAGTTGCAGAGA	0.117
TCCCGCAAAGTACGCGAGA	0.236
TCCCGTTTAGTCTGGGAGA	0.282
TCCCTGACAGTCGAGGAGA	0.199
TCCCATCAAGTCGGGGAGA	0.108
TCCCTAGTAGTCAACGAGA	0.322
TCCCTAGGAGTGTGCGAGA	0.369
TCCCGCGGAGTTGGAGAGA	0.161
TCCCAAACAGTTGATGAGA	0.409
TCCCCAGGAGTTAAGGAGA	0.0285
TCCCAGTTAGTGTCTGAGA	0.057
TCCCAGGTAGTAGGCGAGA	0.297
TCCCTAGAAGTGTGGGAGA	0.0851
TCCCTGCTAGTGTAAGAGA	0.104
TCCCTCTTAGTCACAGAGA	0.546
TCCCGATCAGTGCTCGAGA	0.497
TCCCCTGTAGTGGGCGAGA	0.245

Sequence	TetR repression strength
TCCCCGTAAGTGCGGGAGA	0.0648
TCCCAAGTAGTCCACGAGA	0.139
TCCCCGTGAGTGTAGGAGA	0.204
TCCCGGTTAGTGGGCGAGA	0.35
TCCCTCGTAGTTCGTGAGA	0.105
TCCCCACGAGTCGCTGAGA	0.348
TCCCGCCCAGTAGGGGAGA	0.163
TCCCATGGAGTTCGGGAGA	0.228
TCCCCAGCAGTGATTGAGA	1.1
TCCCGGGTAGTAGACGAGA	0.22
TCCCAAATAGTAAGGGAGA	0.319
TCCCCGTGAGTAAAGGAGA	0.402
TCCCGGCAAGTGCGTGAGA	0.181
TCCCCTAGAGTAGTCGAGA	0.182
TCCCTGTCAGTGAGAGAGA	0.444
TCCCGTTAAGTACACGAGA	0.136
TCCCGATGAGTGGGCGAGA	0.113
TCCCAGCTAGTGATTGAGA	0.306
TCCCTTTAAGTGCGCGAGA	0.764
TCCCGCCCAGTTGCTGAGA	0.213
TCCCTTTAAGTAATAGAGA	0.44
TCCCGTTGAGTCTTAGAGA	0.31
